Laboratory results reported in paper PMC3722167.
These are yes or no findings as the source states them, for the method shown. Binding seen in cells or lysates may run through a third protein. Some binding calls cover weakened binding; strength is not graded here.

Chains of the proteins cited; added tags and fusions are not shown.
UniProt Q8WWF6: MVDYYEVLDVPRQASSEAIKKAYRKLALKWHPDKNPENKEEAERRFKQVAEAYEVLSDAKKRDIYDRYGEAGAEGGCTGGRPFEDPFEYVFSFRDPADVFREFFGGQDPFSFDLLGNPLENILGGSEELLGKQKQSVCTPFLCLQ
UniProt P18850: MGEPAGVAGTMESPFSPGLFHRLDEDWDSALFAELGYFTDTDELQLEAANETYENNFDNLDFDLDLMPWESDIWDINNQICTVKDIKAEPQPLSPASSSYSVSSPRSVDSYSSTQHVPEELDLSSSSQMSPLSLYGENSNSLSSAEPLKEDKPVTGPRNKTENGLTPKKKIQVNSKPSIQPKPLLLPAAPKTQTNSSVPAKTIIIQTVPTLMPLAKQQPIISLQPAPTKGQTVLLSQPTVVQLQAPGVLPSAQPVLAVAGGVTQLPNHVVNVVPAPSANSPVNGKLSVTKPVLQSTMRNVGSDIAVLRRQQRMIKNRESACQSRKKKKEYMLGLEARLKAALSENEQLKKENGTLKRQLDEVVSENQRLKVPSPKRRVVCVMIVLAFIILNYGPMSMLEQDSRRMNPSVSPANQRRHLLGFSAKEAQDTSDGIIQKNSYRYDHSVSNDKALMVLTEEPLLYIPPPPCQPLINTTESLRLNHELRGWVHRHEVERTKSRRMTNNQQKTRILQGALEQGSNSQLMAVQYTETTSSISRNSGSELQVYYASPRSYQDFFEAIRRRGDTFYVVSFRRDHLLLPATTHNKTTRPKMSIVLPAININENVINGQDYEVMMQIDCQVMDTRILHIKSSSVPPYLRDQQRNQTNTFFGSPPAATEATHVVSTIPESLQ
UniProt P0DMV8: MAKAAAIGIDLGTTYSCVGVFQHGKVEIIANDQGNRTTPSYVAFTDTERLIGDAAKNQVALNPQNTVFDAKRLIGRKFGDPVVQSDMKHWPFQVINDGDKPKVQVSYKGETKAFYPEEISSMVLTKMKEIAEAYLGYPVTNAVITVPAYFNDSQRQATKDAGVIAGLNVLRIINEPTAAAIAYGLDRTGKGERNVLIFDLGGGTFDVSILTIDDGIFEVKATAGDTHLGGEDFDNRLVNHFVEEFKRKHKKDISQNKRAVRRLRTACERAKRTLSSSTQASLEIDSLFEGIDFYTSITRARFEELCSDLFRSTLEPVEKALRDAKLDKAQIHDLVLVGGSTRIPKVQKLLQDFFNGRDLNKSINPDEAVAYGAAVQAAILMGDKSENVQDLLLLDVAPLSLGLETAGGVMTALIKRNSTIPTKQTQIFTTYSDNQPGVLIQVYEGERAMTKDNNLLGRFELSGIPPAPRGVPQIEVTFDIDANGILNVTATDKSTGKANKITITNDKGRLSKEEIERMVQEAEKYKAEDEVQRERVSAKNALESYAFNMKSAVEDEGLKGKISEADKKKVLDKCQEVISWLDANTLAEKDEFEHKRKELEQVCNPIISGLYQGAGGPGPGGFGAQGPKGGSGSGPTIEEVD

Key:
[1] = target: Myc-FLAG-tagged human DNAJB3 (pCMV-DNAJB3) (human) (UniProt Q8WWF6); assay: co-IP; 500 μg lysate of transfected HEK-293 cells (50 mM Tris-HCl pH 7.4, 150 mM NaCl, 1 mM EDTA, 1% Triton X-100) on anti-FLAG M2 agarose beads overnight at 4°C; four washes; elution with 3xFLAG peptide; Western blot for JNK, IKKβ and HSP-72
[2] = target: FLAG-tagged ATF-6 (pCMV-ATF-6) (UniProt P18850); assay: as above
[3] = target: endogenous DNAJB3 (human (endogenous in HEK293)) (UniProt Q8WWF6); assay: co-IP; 500 μg lysate of untransfected HEK293 cells; immunoprecipitation with anti-DNAJB3 or anti-HSP-72 antibody; Western blot
[4] = target: HSP-72 (the inducible HSP-70) (human (endogenous in HEK-293)) (UniProt P0DMV8); assay: as above

| binding [1] | binding [2] | binding [3] | binding [4] | Molecule |
| --- | --- | --- | --- | --- |
| binds | no binding | binds |  | HSP-72 (the inducible HSP-70) (from UniProt P0DMV8 1-641) |
|  |  |  | binds | endogenous DNAJB3 (from UniProt Q8WWF6 1-145) |
| binds | no binding |  |  | inhibitor of κB kinase-β (IKKβ) (protein, UniProt O14920 1-756) MSWSPSLTTQTCGAWEMKERLGTGGFGNVIRWHNQETGEQIAIKQCRQELSPRNRERWCLEIQIMRRLTHPNVVAARDVPEGMQNLAPNDLPLLAMEYCQGGDLRKYLNQFENCCGLREGAILTLLSDIASALRYLHENRIIHRDLKPENIVLQQGEQRLIHKIIDLGYAKELDQGSLCTSFVGTLQYLAPELLEQQKYTVTVDYWSFGTLAFECITGFRPFLPNWQPVQWHSKVRQKSEVDIVVSEDLNGTVKFSSSLPYPNNLNSVLAERLEKWLQLMLMWHPRQRGTDPTYGPNGCFKALDDILNLKLVHILNMVTGTIHTYPVTEDESLQSLKARIQQDTGIPEEDQELLQEAGLALIPDKPATQCISDGKLNEGHTLDMDLVFLFDNSKITYETQISPRPQPESVSCILQEPKRNLAFFQLRKVWGQVWHSIQTLKEDCNRLQQGQRAAMMNLLRNNSCLSKMKNSMASMSQQLKAKLDFFKTSIQIDLEKYSEQTEFGITSDKLLLAWREMEQAVELCGRENEVKLLVERMMALQTDIVDLQRSPMGRKQGGTLDDLEEQARELYRRLREKPRDQRTEGDSQEMVRLLLQAIQSFEKKVRVIYTQLSKTVVCKQKALELLPKVEEVVSLMNEDEKTVVRLQEKRQKELWNLLKIACSKVRGPVSGSPDSMNASRLSQPGQLMSQPSTASNSLPEPAKKSEELVAEAHNLCTLLENAIQDTVREQDQSFTALDWSWLQTEEEEHSCLEQAS |
